# Residue numbers refer to the chain shown, from its start. The list shows a part of the results.
# T1: RBFOX1 RRM RbFoxmut (Fox-RRM*) (Homo sapiens, UniProt Q9NWB1 109-208, R118D;E147R;N151S;E152T)
# T1 sequence: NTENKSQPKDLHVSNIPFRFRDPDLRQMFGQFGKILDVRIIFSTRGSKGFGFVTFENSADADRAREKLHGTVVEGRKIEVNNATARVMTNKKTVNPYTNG
# B1: GUCGCUA (DNA:RNA)
# RNA: GGGAGACCGGAAUUCAGAUUGUCCGUCGCUAUUAAAUCCCGUCGUAGCCACCA
# DNA 1: CAATCTGAATTCCGGTCTCCC
# DNA 2: TGGTGGCTACGACGGGATT
# B2: AUGGCAU (DNA:RNA)
# RNA: B1 RNA with G25A, C27G, U30A, A31U
# DNA 1: CAATCTGAATTCCGGTCTCCC
# DNA 2: TGGTGGCTACGACGGGATT
# B3: ACAAUUU (DNA:RNA)
# RNA: B1 RNA with G25A, U26C, C27A, G28A, C29U, A31U
# DNA 1: CAATCTGAATTCCGGTCTCCC
# DNA 2: TGGTGGCTACGACGGGATT
# B4: CCGGCAU (DNA:RNA)
# RNA: B1 RNA with G25C, U26C, C27G, U30A, A31U
# DNA 1: CAATCTGAATTCCGGTCTCCC
# DNA 2: TGGTGGCTACGACGGGATT
# B5: AUUGACA (DNA:RNA)
# RNA: B1 RNA with G25A, C27U, C29A, U30C
# DNA 1: CAATCTGAATTCCGGTCTCCC
# DNA 2: TGGTGGCTACGACGGGATT
# B6: CUACGGC (DNA:RNA)
# RNA: B1 RNA with G25C, C27A, G28C, C29G, U30G, A31C
# DNA 1: CAATCTGAATTCCGGTCTCCC
# DNA 2: TGGTGGCTACGACGGGATT
# B7: GGACGAA (DNA:RNA)
# RNA: B1 RNA with U26G, C27A, G28C, C29G, U30A
# DNA 1: CAATCTGAATTCCGGTCTCCC
# DNA 2: TGGTGGCTACGACGGGATT
# B8: CAGUCUC (DNA:RNA)
# RNA: B1 RNA with G25C, U26A, C27G, G28U, A31C
# DNA 1: CAATCTGAATTCCGGTCTCCC
# DNA 2: TGGTGGCTACGACGGGATT
# B9: AGGCCUC (DNA:RNA)
# RNA: B1 RNA with G25A, U26G, C27G, G28C, A31C
# DNA 1: CAATCTGAATTCCGGTCTCCC
# DNA 2: TGGTGGCTACGACGGGATT
# Molecular target: T1, RBFOX1 RRM RbFoxmut (Fox-RRM*)
# Assay: EMSA; HiTS-Eq, 1 nM pool, 10 min; buffer printed only for the single-RNA assays: 10 mM Tris pH 7.5, 150 mM NaCl, 3.4 mM EDTA, 0.001% NP-40, 30 C
# Conditions: tags: His6 N-terminal (pET28a); label: 5' 32P
# In short: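 Purified RbFox RRM (wild type or mutant) was equilibrated for 10 min in 50 µL with 1 nM of a 5′-radiolabelled pool of RNA with 7 randomized nucleotides, its flanks annealed to DNA oligonucleotides, across increasing protein concentrations. Free RNA was separated by 8% native PAGE, excised, reverse-transcribed, PCR-barcoded and sequenced on an Illumina HiSeq 2500. Relative association constants came from read-count changes of each variant against the control reaction, normalised to the cognate motif.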
row,Binder,binding signal
1,B1,0.135 KA relative to UGCAUGU
2,B2,0.146 KA relative to UGCAUGU
3,B3,0.0757 KA relative to UGCAUGU
4,B4,0.0728 KA relative to UGCAUGU
5,B5,0.0621 KA relative to UGCAUGU
6,B6,0.0631 KA relative to UGCAUGU
7,B7,0.104 KA relative to UGCAUGU
8,B8,0.0665 KA relative to UGCAUGU
9,B9,0.0748 KA relative to UGCAUGU

# Reference: article PMC9911399, “Two distinct binding modes provide the RNA-binding protein RbFox with extraordinary sequence specificity”
